Source: PubChem BioAssay AID1159614 (National Center for Advancing Translational Sciences (NCATS), 2016)
Out of some 45,000 compounds screened, about 65 (0.1%) were called active. Calls follow the shape of the dose curve; as a rule, active = well fitted activation curve with a large enough effect; inconclusive = small, poorly fitted or top-dose-only effect; inactive = no such curve, though single readings can be large or run the other way. This is one part of the list.

Each molecule was assayed against Galactocerebrosidase (Homo sapiens) (UniProt P54803) (assay: A Novel Cell-Based Assay to Identify Small Molecules for B -Galactocerebrosidase). Conditions: 145M-Twi-hGALC-G270D cells (Twitcher mouse brain line with human GALC G270D), HMU-beta-Gal fluorescence, 48 h; series mostly up to 57.5 µM; activation: at the top concentration.
Summary of the method: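 Fluorescence readout: HMU-β-gal cleavage by mutant GALC (0.1 mM final, citrate/phosphate pH 5.2 with 1 mg/mL taurocholate), stopped with carbonate/bicarbonate plus Triton X-100. Cells: murine Twitcher 145M-Twi expressing human G270D GALC; qHTS for activators.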
Also: 0% is about no effect; nearly all actives have a fitted effect of over 65% in size.

Sequence of UniProt P54803 (P54803 whole entry, looked up): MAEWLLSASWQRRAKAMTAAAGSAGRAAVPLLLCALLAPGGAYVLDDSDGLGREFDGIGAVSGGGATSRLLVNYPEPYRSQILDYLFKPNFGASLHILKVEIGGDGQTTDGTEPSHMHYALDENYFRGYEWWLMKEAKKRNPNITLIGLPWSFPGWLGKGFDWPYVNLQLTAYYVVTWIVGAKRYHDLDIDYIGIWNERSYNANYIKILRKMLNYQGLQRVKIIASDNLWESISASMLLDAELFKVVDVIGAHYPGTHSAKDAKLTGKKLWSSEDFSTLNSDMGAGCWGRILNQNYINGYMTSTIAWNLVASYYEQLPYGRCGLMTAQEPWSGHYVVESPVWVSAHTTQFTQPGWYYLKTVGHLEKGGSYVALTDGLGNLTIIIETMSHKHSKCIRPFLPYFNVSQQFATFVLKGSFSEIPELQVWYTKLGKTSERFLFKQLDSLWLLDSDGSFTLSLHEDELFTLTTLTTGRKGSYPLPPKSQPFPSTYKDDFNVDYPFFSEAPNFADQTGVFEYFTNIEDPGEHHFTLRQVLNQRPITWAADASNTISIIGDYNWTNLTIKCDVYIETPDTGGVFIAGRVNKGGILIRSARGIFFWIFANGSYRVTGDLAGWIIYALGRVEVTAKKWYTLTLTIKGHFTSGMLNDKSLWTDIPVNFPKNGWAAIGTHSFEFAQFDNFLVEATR

activation, inactive:
CCOC(=O)c1sc2ccccc2c1S(=O)(=O)Nc1cccc(C(F)(F)F)c1 -31.9%
Cc1cccc(C(=O)NCCc2sc(-c3ccccc3)nc2C)c1 -24.4%
CC(C)OCCCNC(=O)c1ccc2c(=O)n(CCc3ccccc3)c(=O)[nH]c2c1 -13.5%
Cc1oc(-c2cccc(Cl)c2)nc1CN1CCCC(C(=O)NCc2ccc(F)cc2)C1 (stereo unspecified) -11.7%
CCCCN(C)C(=O)C(Cc1ccccc1)NS(=O)(=O)c1ccc2c(c1)c(=O)n(C)c(=O)n2C (stereo unspecified) 21.5%
COc1ccc(-c2nnc(SCC(=O)Oc3c(C)cccc3C)o2)cc1OC -3.98%
Cc1coc2c1c(C)cc1oc(=O)cc(C)c12 -24.3%
Cc1ccccc1CNC(=O)c1ccc(-c2nc(CS(=O)(=O)c3ccccc3)c(C)o2)cc1 -3.53%
CCOC(=O)C1=C(CS(=O)(=O)c2ccc(Br)cc2)NC(=O)NC1c1ccccc1 (stereo unspecified) -15.2%
COC(=O)c1cc(NC(=O)Cn2nc(C)n3cccc3c2=O)cc(C(=O)OC)c1 -5.1%
CCC(C)NC(=O)c1ccc(-n2c(-c3ccccc3)cc3c2CCCC3)cc1 (stereo unspecified) -8.34%
Cc1ccc(-c2c(C(=O)NCc3ccccc3)oc(=O)c3ccccc23)cc1 -21.9%
COc1cc(NC(=O)c2cc(Cl)c(OC)c(Cl)c2)ccc1NC(=O)c1cc2ccccc2o1 -11.4%
CC(=O)c1c(C)oc2ccc(N(C(=O)Oc3ccccc3)S(=O)(=O)c3ccc(C(C)(C)C)cc3)cc12 -7.23%
COc1ccc(C)cc1NC(=O)CN(c1cc(C(F)(F)F)ccc1Cl)S(C)(=O)=O -7.08%
CCc1cccc(C)c1NC(=O)c1cc(C)nc2c1c(C)nn2-c1cccc(Cl)c1C -6.74%
CN1c2ccccc2-c2nc(SCC(=O)Nc3ccccc3C(F)(F)F)ncc2S1(=O)=O -4.97%
Cc1ccc(CN2CCCn3nc(C(=O)NCCc4ccc(Cl)cc4)cc3C2=O)cc1 -10.1%
COc1ccc2c(c1)-c1nc(NC(=O)c3cc(Cl)ccc3OC)sc1CC2 -19.1%
Cc1cc(OC(=O)c2cc(-c3ccc4c(c3)OCCO4)on2)ccc1Cl -9.26%
COc1ccccc1CNC(=O)CCn1c(=O)c2ccccc2n(CC(=O)Nc2ccc(C)cc2C)c1=O -13.1%
CCN(Cc1ccccc1)C(=O)Cn1c(=O)n(Cc2ccccc2)c(=O)c2c1c1cc(OC)ccc1n2C 5.48%
O=C(NCC(c1cccnc1)N1CCN(Cc2ccccc2)CC1)C(=O)Nc1ccc(Cl)cc1 (stereo unspecified) -13.3%
COc1ccc(C(CC(=O)Nc2ccc(C)c(C)c2)N2Cc3ccccc3C2=O)cc1OC (stereo unspecified) -5.44%
Cc1ccc(CSc2nc3ccc(NC(=O)C(C)C)cc3s2)cc1 -12.1%
Cc1nc(CC(=O)Nc2cccc(C)c2C)cs1 2.87%
CC(=O)c1cccc(S(=O)(=O)NCCc2csc3nc(-c4ccc(F)cc4)nn23)c1 -47.9%
Cc1ccc(CSCC(=O)N2CCN(c3ccc(F)cc3)CC2)cc1 -12.9%
CC(C)c1ccc(S(=O)(=O)c2nnn3c2nc(NC2CCCC2)c2sccc23)cc1 -4.51%
Cc1ccc2c(=O)cc(CSc3ccccc3)[nH]c2c1C -0.844%
COc1ccc(OC)c(NC(=O)c2c(NCc3ccc(C)o3)sc3c2CCC(C)C3)c1 (stereo unspecified) -37.8%
COc1ccc(C(=O)NCc2ccc3c(c2)CCN3C(=O)c2ccncc2)cc1 -25.7%
Cc1cccc(N(CC(=O)Nc2ccc(Br)cc2)S(C)(=O)=O)c1C -14.1%
COc1cccc(CNC(=O)c2ccc(Cn3c(SCc4ccccc4)nc4cccnc43)cc2)c1 -38.9%
COc1ccccc1Nc1cc(C(=O)NCCCN(C)c2ccccc2)c2ccccc2n1 -15.3%
COc1cc(Cl)ccc1Nc1ncc(C(=O)N2CCN(c3ccccc3OC)CC2)c2ccccc12 -13.3%
Cn1nccc1C(=O)NCc1ccc2c(c1)CCN2C(=O)c1ccc(F)cc1 -20.2%
Cc1ccc(C(=O)N2CCC(c3c[nH]c4ccccc34)(c3c[nH]c4ccccc34)CC2)cc1 -12.8%
CCCCN(CC)CCNC(=O)c1cc2c(-c3ccc(Cl)cc3)nn(C)c2s1 -9.56%
COc1cc(NC(=O)CCc2c(C)nc3nc(-c4cc(OC)cc(OC)c4)nn3c2C)cc(OC)c1 -2.73%
Cc1nc2ccccc2n1CC(O)COc1ccc(C(=O)O)cc1 (stereo unspecified) 10.5%
O=C(CSc1nc(-c2ccccc2)nc2c1CCCC2)c1ccc(F)cc1 -7.16%
Cc1ccc(S(=O)(=O)c2nc(-c3ccco3)oc2SC(C)c2ccccc2)cc1 (stereo unspecified) -25.9%
CCC(=O)N1c2ccc(S(=O)(=O)NCc3cccc(OC)c3)cc2CC1C (stereo unspecified) -10.8%
CCCCN(Cc1ccccc1)C(=O)c1oc(=O)c2ccccc2c1-c1ccc(C)cc1 1.06%
COc1ccccc1/C=C/c1nc(C#N)c(N2CCCCCC2)o1 6.5%
Cc1ccc(-n2c3nc(=O)n(C)c(=O)c-3cc3c(Cl)cccc32)c(C)c1 -8.8%
Cc1ccc(NS(=O)(=O)c2ccc(NC(=O)N3CCCC3)cc2)cc1C -13.5%
CCC(Sc1nnc(-c2ccc(OC)cc2)c(-c2ccc(OC)cc2)n1)C(=O)NC1CCCCC1 (stereo unspecified) -14.3%
CCn1c(C(=O)N2CCC(C(=O)NCCc3ccccc3)CC2)cc2sccc21 -9.6%
CC1CCCN(S(=O)(=O)c2ccc(NC(=O)c3nc(SC(C)C)ncc3Cl)cc2)C1 (stereo unspecified) -10%
COc1cccc(N2CC(NC(=O)/C=C\c3ccc4c(c3)OCO4)CC2=O)c1 (stereo unspecified) -12.6%
COc1ccc(-n2nc(C(=O)N3CCN(c4ccccc4OC)CC3)c3c4ccccc4n(C)c3c2=O)cc1 -13%
CCOC(=O)c1ccc(NC(=O)C(CC)Sc2nc3ncccc3[nH]2)cc1 (stereo unspecified) -7.64%
COc1ccc(N2CC(NC(=O)c3ccc(S(=O)(=O)N4CCCC4)cc3)CC2=O)cc1 (stereo unspecified) -1.94%
CCCCNS(=O)(=O)c1ccc2nc(NC(=O)c3cccnc3)sc2c1 -1.9%
C/C(=C(/OCCOc1ccc(Cl)cc1)c1ccc(Cl)cc1Cl)n1ccnc1 -11.5%
CCc1ccccc1NC(=O)CN1C(=O)CCc2cc(S(=O)(=O)N3CCCCC3)ccc21 3.99%
Cc1ccc(CNC(=O)c2ccc(CSCc3ccc(Cl)cc3)o2)cc1 -11.2%
Cn1c(=O)oc2cc(S(=O)(=O)N3CCCC(C(=O)Nc4ccc(Br)cc4F)C3)ccc21 (stereo unspecified) -3.08%
O=C(Nc1cc(C(F)(F)F)ccc1Cl)c1cc2nc(-c3ccc4c(c3)OCO4)cc(C(F)(F)F)n2n1 -16.7%
CCOc1ccccc1C(=O)Nc1c(NC)c2ccccc2oc1=O -8.46%
Cc1ccc(-n2ccnc(NCc3ccccc3)c2=O)cc1C -11.6%
O=C(NCc1cccc(F)c1)C1=Cc2cc(Br)ccc2OC1 -13.7%
O=C(CSc1nc2c(oc3ccccc32)c(=O)n1Cc1ccco1)Nc1cccc(Cl)c1 -13.5%
COc1ccc(N(CC(=O)NCc2ccc(F)cc2)S(=O)(=O)c2c(C)n[nH]c2C)cc1 -12.7%
COc1ccc(OCCCn2c(=O)oc3ccc(C)cc32)cc1 -13.8%
CCc1ccc(NC(=O)c2ccc(F)c(S(=O)(=O)N3CCC(C)CC3)c2)cc1 -2.72%
Cc1ccc(C)c(Cn2nnc(C(=O)NCc3ccc(Cl)cc3Cl)c2N)c1 -18.7%
Cc1cc(C)cc(NC(=O)CN2C(=O)c3ccccc3Sc3ccc(C(=O)N4CCOCC4)cc32)c1 -9.08%
COc1cc2c(cc1NS(=O)(=O)c1cccc(C#N)c1)n(C)c(=O)n2C -4.23%
Cc1cn(C)c(CC(=O)Nc2cccc(Cl)c2C)c1C(=O)O -7.66%
COc1ccc(CCNC(=O)CCCCCn2c(SCC(N)=O)nc3cc4c(cc3c2=O)OCO4)cc1OC -18.7%
Cc1ccc(S(=O)(=O)N2CCCc3cc(NC(=O)c4ccccc4Cl)ccc32)cc1 -10.3%
CCN(CC)S(=O)(=O)c1ccc2c(c1)N(CC(=O)Nc1ccc(F)cc1)C(=O)CO2 -16.3%
CCCCc1oc2ccc(NS(C)(=O)=O)cc2c1C(=O)c1ccc(OCCCN(CCCC)CCCC)cc1 -12.9%
Cc1ccc(C)c(N(C)C(=O)C2CCN(c3ncnc4c3nc3n4CCCCC3)CC2)c1 -4.05%
CCN(CC)S(=O)(=O)c1nnc(NC(=O)COc2cccc(C)c2)s1 -2.29%
Cn1cnc(S(=O)(=O)N2CCCC(C(=O)Nc3cccc(C#N)c3)C2)c1 (stereo unspecified) -14.4%
COc1ccc(NC(=O)N(Cc2nnc3n2CCCCC3)c2ccc(OC)c(Cl)c2)cc1 -0.0488%
O=C(Nc1c(C(=O)c2ccc(F)cc2)oc2ccccc12)c1cc(-c2ccccc2)on1 29.3%
COc1cccc(N2CCN(c3ccc4nnc(CCC(=O)O)n4n3)CC2)c1 -7.29%
CCc1ccc(S(=O)(=O)c2c(C(=O)c3ccc(C)c(C)c3)cnc3ccccc23)cc1 -17.5%
CCOc1ccc(CNC(=O)c2ccc3nc(CC)c(CC)nc3c2)cc1OC -1.99%
CCn1c(=O)cc(OCC(=O)Nc2cc(OC)c(OC)c(OC)c2)c2ccccc21 -14.5%
COCCNC(=O)CSc1nc2ccccc2nc1Cc1ccc(C)cc1 -1.2%
O=C(Cn1c(=O)n(-c2ccccc2)c(=O)c2c3c(sc21)CCCC3)Nc1cccc(F)c1 -10.8%
CN(C)c1ccc(CNC(=O)c2ccc(NC(=O)c3nsc4ccccc34)cc2)cc1 -5%
COc1cccc(Cc2nc3ccccc3nc2SCC(=O)Nc2ccccc2F)c1 -9.78%
Cc1cccc(NC(=O)Cn2c(=O)n(CCc3ccccc3)c(=O)c3sc4ccccc4c32)c1 -3.15%
CC(C)C1N=C2c3ccccc3N=C(SCC(=O)NCc3ccc(F)cc3)N2C1=O (stereo unspecified) -28.1%
CCC12CN3CC(C)(CN(C1)C3c1c(C)n(C)c3ccccc13)C2=O (stereo unspecified) -7.56%
Cc1c(C(=O)NCc2ccccc2Cl)cccc1-n1cnc2cccnc21 -16.4%
Cc1cccc(CNC(=O)c2ccc3nc(-c4ccccc4)c(-c4ccccc4)nc3c2)c1 -7.63%
CCC1(c2ccccc2)C(=O)NCNC1=O -17.2%
COc1cc(NC(=O)c2cc(C3CC3)nc3c2c(C)nn3-c2ccc(C)cc2)cc(OC)c1 -11.3%
